Experiment in all cases: Viability of human cancer cell lines after 72 h of drug (GDSC screen)
Compound in assay [1]: NCC(=O)Nc1ccc(-n2nc(C(F)(F)F)cc2-c2ccc3c(ccc4ccccc43)c2)cc1 [OSU-03012]
The settings on record: top dose 16 µM; top dose inferred. The protocol: (§1)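 Human cancer cell lines in 384-well plates, medium with 10% serum, drug for 72 h over a 256-fold dose range (nine 2-fold or five 4-fold steps up to the top dose). Adherent lines were fixed and stained with the nucleic acid dye Syto60, suspension lines read with resazurin; signal relative to control wells, capped at 0 and 100%. One two-parameter sigmoid per drug and line, fitted in a mixed model over all curves with the slope shared within a line.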

Compound in assay [2]: Fc1cc(-c2ccnc(Nc3ccc(-n4cnc(N5CCOCC5)n4)cc3)n2)cc(N2CCOCC2)c1 [JNK-9L]
The settings on record: top dose 5.12 µM; top dose inferred. How it is done:
as §1

Compound in assay [3]: OC[C@H](Cc1ccccc1)Nc1nc(Oc2ccc3c(c2)CCC3)nc2c1ncn2Cc1ccc(-c2ccccc2)cc1 [QS11]
The settings on record: top dose 10.24 µM. How it is done:
as §1

Compound in assay [4]: C#Cc1cccc(Nc2ncnc3cc(OC)c(OCCCCCCC(=O)NO)cc23)c1 [CUDC-101]
The settings on record: top dose 5.12 µM; top dose inferred. How it is done:
as §1

Compound in assay [5]: CC(C)(C)c1cc(NC(=O)Nc2ccc(-c3cn4c(n3)sc3cc(OCCN5CCOCC5)ccc34)cc2)no1 [AC220]
The settings on record: top dose 1.024 µM; top dose inferred. How it is done:
as §1

Compound in assay [6]: COc1cc(F)c(F)c(Nc2ccc(I)cc2F)c1NS(=O)(=O)C1(C[C@H](O)CO)CC1 [RDEA119]
Conditions: top dose 5 µM, top dose inferred. How it is done: as §1

Compound in assay [7]: O=c1[nH]cc(F)c(=O)[nH]1 [5-Fluorouracil]
Conditions: top dose 32 µM; top dose inferred. The protocol:
as §1

What is called IC50 is the concentration at which inhibition is half-maximal.

IC50 is the fitted dose that halves viability relative to control wells, and lower means more sensitive; a limit (>, <) means that the fit lies beyond the doses tested. The AUC spans the tested range (256-fold, ending at the top dose) of the same fit; values near 1 show little effect. For part of these data: Any top dose called inferred was calculated from the reported fits. For part of these data: An entry number marks a drug with two screens in the source, which often give different values.

As to “MEG-01 (chronic myeloid leukaemia, suspension)”, the AUC stood at 0.687 in assay [1]; 0.64 in assay [2]; 0.806 in assay [3]; 0.623 in assay [4]; 0.987 in assay [5]; 0.614 in assay [6] (screen: GDSC drug entry 1014). Moreover, the results for the AUC in assay [6] (screen: GDSC drug entry 1526) and in assay [7] were 0.657 and 0.603, respectively. Also, the half-inhibitory concentration (IC50) in assay [1] was 3.21 µM; in assay [2], 0.76 µM; in assay [3], 4.86 µM; in assay [4] it was 0.684 µM; in assay [5], greater than 1.02 µM; in assay [6] (screen: GDSC drug entry 1014), 0.629 µM. Besides, the IC50 in assay [6] (screen: GDSC drug entry 1526) was 0.83 µM; in assay [7], 3.76 µM.
Consider MEL-JUSO (melanoma, adherent), for which the AUC in assay [1] was determined as 0.627; in assay [2], 0.507; in assay [3], 0.84; in assay [4] it was 0.482; in assay [5] it was 0.977; in assay [6] (screen: GDSC drug entry 1014) it was 0.566. In addition, the AUC in assay [6] (screen: GDSC drug entry 1526) was determined as 0.645; in assay [7], 0.583. For the same cell line, the half-inhibitory concentration (IC50) in assay [1] is 2.34 µM; in assay [2], 0.336 µM; in assay [3] it was 8.27 µM; in assay [4], 0.284 µM; in assay [5] it was greater than 1.02 µM; in assay [6] (screen: GDSC drug entry 1014) it was 0.485 µM. Also, the IC50 in assay [6] (screen: GDSC drug entry 1526) came to 0.827 µM; in assay [7], 3.46 µM.
For the cell line MES-SA (uterus, adherent), the AUC in assay [1] came to 0.77; in assay [2] it was 0.571; in assay [3], 0.934; in assay [4], 0.88; in assay [5], 0.986; in assay [6] (screen: GDSC drug entry 1014), 0.959. The AUC in assay [6] (screen: GDSC drug entry 1526) was 0.921; in assay [7] it was 0.992. For the same cell line, the IC50 in assay [1] is 5.22 µM; in assay [2], 0.485 µM; in assay [3] it was greater than 10.2 µM; in assay [4] it was 3.98 µM; in assay [5], greater than 1.02 µM; in assay [6] (screen: GDSC drug entry 1014), greater than 5 µM. Besides, the IC50 is greater than 5 µM in assay [6] (screen: GDSC drug entry 1526) and greater than 32 µM in assay [7].
As to MFE-280 (endometrium, adherent), the AUC in assay [1] came to 0.876; in assay [2], 0.798; in assay [3], 0.901; in assay [4], 0.464; in assay [5], 0.98; in assay [6] (screen: GDSC drug entry 1014), 0.976. Also, the AUC in assay [6] (screen: GDSC drug entry 1526) worked out at 0.974; in assay [7], 0.85. In addition, the IC50 in assay [1] was greater than 16 µM; in assay [2], 3.22 µM; in assay [3] it was greater than 10.2 µM; in assay [4], 0.249 µM; in assay [5], greater than 1.02 µM; in assay [6] (screen: GDSC drug entry 1014) it was greater than 5 µM. Also, the results for the half-inhibitory concentration (IC50) in assay [6] (screen: GDSC drug entry 1526) and in assay [7] were greater than 5 µM and greater than 32 µM, respectively.
Regarding MFE-296 (endometrium, adherent), the AUC was found to be 0.703 in assay [1]; 0.416 in assay [2]; 0.957 in assay [3]; 0.951 in assay [4]; 0.985 in assay [5]; 0.884 in assay [6] (screen: GDSC drug entry 1014). In addition, the AUC turned out to be 0.881 in assay [6] (screen: GDSC drug entry 1526) and 0.961 in assay [7]. In addition, the half-maximal inhibitory concentration (IC50) is 3.93 µM in assay [1]; 0.185 µM in assay [2]; greater than 10.2 µM in assay [3]; greater than 5.12 µM in assay [4]; greater than 1.02 µM in assay [5]; greater than 5 µM in assay [6] (screen: GDSC drug entry 1014). For the same cell line, the IC50 in assay [6] (screen: GDSC drug entry 1526) was greater than 5 µM; in assay [7] it was greater than 32 µM.
For the cell line MFE-319 (endometrium, adherent), the AUC was 0.592 in assay [1]; 0.586 in assay [2]; 0.831 in assay [3]; 0.929 in assay [4]; 0.988 in assay [5]; 0.913 in assay [6] (screen: GDSC drug entry 1014). Besides, the AUC in assay [6] (screen: GDSC drug entry 1526) stood at 0.892; in assay [7], 0.983. The 50% inhibitory concentration (IC50) was 1.77 µM in assay [1]; 0.545 µM in assay [2]; 6.23 µM in assay [3]; greater than 5.12 µM in assay [4]; greater than 1.02 µM in assay [5]; greater than 5 µM in assay [6] (screen: GDSC drug entry 1014). Besides, the figures for the IC50 in assay [6] (screen: GDSC drug entry 1526) and in assay [7] were greater than 5 µM and greater than 32 µM, respectively.
On to MFH-ino (soft tissue, adherent), for which the AUC in assay [1] was 0.411; in assay [2] it was 0.674; in assay [3], 0.694; in assay [4], 0.614; in assay [5], 0.983; in assay [6] (screen: GDSC drug entry 1014) it was 0.597. Further, the AUC in assay [6] (screen: GDSC drug entry 1526) came out at 0.788; in assay [7], 0.946. Further, the 50% inhibitory concentration (IC50) in assay [1] is 0.544 µM; in assay [2], 1.07 µM; in assay [3], 2.49 µM; in assay [4] it was 0.699 µM; in assay [5] it was greater than 1.02 µM; in assay [6] (screen: GDSC drug entry 1014), 0.604 µM. Also, the values for the IC50 in assay [6] (screen: GDSC drug entry 1526) and in assay [7] were 2.61 µM and greater than 32 µM, respectively.
In the case of MFM-223 (breast, adherent), the AUC in assay [1] worked out at 0.876; in assay [2] it was 0.899; in assay [3], 0.987; in assay [4], 0.623; in assay [5], 0.989; in assay [6] (screen: GDSC drug entry 1014), 0.927. For the same cell line, the AUC came to 0.923 in assay [6] (screen: GDSC drug entry 1526) and 0.966 in assay [7]. Besides, the IC50 in assay [1] was 15.6 µM; in assay [2], greater than 5.12 µM; in assay [3], greater than 10.2 µM; in assay [4] it was 0.694 µM; in assay [5] it was greater than 1.02 µM; in assay [6] (screen: GDSC drug entry 1014), greater than 5 µM. Moreover, the half-maximal inhibitory concentration (IC50) in assay [6] (screen: GDSC drug entry 1526) was greater than 5 µM; in assay [7], greater than 32 µM.
As for MG-63 (osteosarcoma, adherent), the AUC in assay [1] worked out at 0.629; in assay [2], 0.527; in assay [3], 0.795; in assay [4], 0.983; in assay [5] it was 0.984; in assay [6] (screen: GDSC drug entry 1014), 0.755. The figures for the AUC in assay [6] (screen: GDSC drug entry 1526) and in assay [7] were 0.813 and 0.854, respectively. The concentration for half-maximal inhibition (IC50) in assay [1] is 2.4 µM; in assay [2] it was 0.385 µM; in assay [3], 5.64 µM; in assay [4], greater than 5.12 µM; in assay [5] it was greater than 1.02 µM; in assay [6] (screen: GDSC drug entry 1014) it was 1.94 µM. Further, the IC50 in assay [6] (screen: GDSC drug entry 1526) came out at 3.23 µM; in assay [7] it was 31.8 µM.

The values are drawn from the supplement of paper PMC4967469.
